The campaign covered roughly 73,000 compounds. About 1,800 (2.5%) were called active. The shares of active, inactive and inconclusive entries below differ from those in the screen. Calls come from the whole dose curve; as a rule, active = well fitted activation curve with a large enough effect; inconclusive = small, poorly fitted or top-dose-only effect; inactive = no such curve, though single readings can be large or run the other way. Potencies of inconclusive entries are left out as doubtful fits.
test: qHTS Assay for Agonists of the Thyroid Stimulating Hormone Receptor: Activators of Intracellular cAMP Concentrations in Parental HEK 293; conditions: parental HEK293 CNG cAMP sensor, membrane potential fluorescence; activation: at 57.1 µM (top of the series) unless noted; note: nearly all actives have a fitted effect of over 55% in size; for activation: % of control where 0% means no effect
Outline: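 Parental HEK 293 cells stably expressing a cAMP-gated CNG channel were loaded with membrane potential dye containing 100 uM RO 20-1724 for 60 min. Compound added for 30 min; depolarization read as fluorescence intensity at 590 nm.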
Potency is the fitted concentration of half-maximal effect; tags give direction and shape of the fitted curve.

SMILES	Potency	activation
Cc1c(CN2CCCCC2)c(O)n(CCCO)c(=O)c1C#N	inconclusive [activator, single point]	–
CCCn1cc(S(=O)(=O)CC(=O)NC2CCCCC2)c2ccccc21	inconclusive [activator, single point]	–
COc1ccccc1N(CC(=O)Nc1cc(C)on1)S(=O)(=O)c1cccs1	inconclusive [activator, partial curve]	–
CCC1SC2=NC(C)=C(C(=O)OC)C(c3ccc(C(=O)OC)cc3)N2C1=O (stereo unspecified)	inconclusive [activator, single point]	–
O=c1cc(CSc2ccc(Cl)cc2)nc2nc[nH]n12	active: 10 µM	–
COC(=O)c1ccc(NC(=O)c2ccc3c(c2)OCO3)cc1	inactive	–
Cc1oc2c(C)c3oc(=O)c4c(c3cc2c1C)CCC4	inconclusive [activator, partial curve]	–
O=C(CC1Nc2ccccc2NC1=O)NC1CCCCC1 (stereo unspecified)	inconclusive [activator, full curve]	–
COc1ccc2[nH]c(=O)c(C(c3nnnn3C(C)(C)C)N(Cc3ccco3)CC3CCCO3)cc2c1 (stereo unspecified)	active: 15.8 µM	–
CCOc1ccc(NC(=O)C2CSC(c3ccncc3)=N2)cc1 (stereo unspecified)	inconclusive [activator, single point]	–
COCCn1c(=O)c(-c2ccc(OC)cc2)nc2cnc(N3CCN(C)CC3)nc21	inactive	–
CCCn1c(-c2ccc(F)cc2)nc2c(NC3CCN(Cc4ccccc4)CC3)nc(C)nc21	inconclusive [activator, single point]	–
CCOC(=O)C1=C(C)N(C2CCCCC2)C(=O)C1	inconclusive [activator, partial curve]	–
CC(=O)Nc1nc(-c2ccc(Cl)cc2)nc(C)c1C(C)=O	–	inactive: -2.02% [at 11.4 µM]
Brc1cc2c(cc1Cn1c(-c3cncs3)nc3ccccc31)OCO2	active: 7.94 µM	–
COC(=O)c1[nH]c2ccc(Cl)cc2c1NC(=O)CN1CCC(C(N)=O)CC1	active: 15.8 µM	–
O=C(CN1C(=O)CCS(=O)(=O)c2ccccc21)NCc1ccc2c(c1)OCO2	inconclusive [activator, single point]	–
Cc1nn(C)c(C)c1Sc1ccc(Br)cc1	inconclusive [activator, partial curve]	–
Cc1ccc(OCC(=O)n2nc(C)cc2C)c(Br)c1	inconclusive [activator, single point]	–
CC(C)=C1C2C=CC1C(C(=O)Nc1cc(C)ccc1C)C2C(=O)O (stereo unspecified)	inconclusive [activator, single point]	–
COC(=O)c1ccccc1NC(=O)Cn1nc(C(F)(F)F)c2c1CCC2	active: 25.1 µM	–
Cc1ccccc1-n1c(SC/C(O)=C(\C#N)c2nc3ccccc3[nH]2)nnc1-c1ccncc1	inconclusive [activator, single point]	–
CC(C)[C@H](Nc1ncnc2nc[nH]c12)C(=O)O	–	inactive: -0.823% [at 11.4 µM]
COc1ccc(COC(=O)N/N=C2/C[C@@H](O)[C@@H](O)[C@@H]3[C@@H]4C(=O)N(C5CCCCC5)C(=O)[C@H]4CC[C@@H]23)cc1	–	inactive: 5.18% [at 11.4 µM]

SMILES	Potency	activation
COc1ccccc1C(=O)Nc1c2c(nn1-c1cccc(C)c1C)CS(=O)C2 (stereo unspecified)	inconclusive [activator, partial curve]	–
O=C(COC(=O)c1ccccc1NC(=O)c1ccco1)NCc1ccc2c(c1)OCO2	inconclusive [activator, single point]	–
CC(C)CC1(C(=O)NCc2ccccn2)C=CCN1C(=O)c1ccccc1 (stereo unspecified)	active: 25.1 µM	–
CN(C)c1ccc(N=NS(=O)(=O)O)cc1	active: 10 µM	–
O=C(CSc1nc(C2CC2)nc2sc3c(c12)CCCC3)NCc1ccco1	inconclusive [activator, full curve]	–
COc1ccc(C2C(C(=O)NCCN3CCOCC3)c3ccccc3C(=O)N2C2CCCCC2)cc1 (stereo unspecified)	inactive	–
O=CNc1ccccc1Oc1ccccc1	inconclusive [activator, single point]	–
CCCCCSc1nc2c(c(=O)[nH]c(=O)n2C)n1C(C)C	inactive	–
Cc1ccc(Cn2nnc3c(=O)[nH]c(C4CCN(S(=O)(=O)c5ccc(C)cc5)CC4)nc32)cc1	inactive	–
O=C(c1cccc(C(=O)N2CCc3ccccc32)n1)N1CCc2ccccc21	inconclusive [activator, partial curve]	–
CC(c1ccco1)N(C(=O)CSc1ccc(Br)cc1)c1ccccn1 (stereo unspecified)	active: 25.1 µM	–
COc1ccccc1CN1CCC2(CC1)CCN(C(C)=O)CC2	inconclusive [activator, single point]	–
COc1ccc(N2CCN(CCCNC(=O)C3CCCN(S(=O)(=O)c4cnc[nH]4)C3)CC2)cc1 (stereo unspecified)	inconclusive [activator, single point]	–
[C-]#[N+]/C(C#N)=C\c1cc(C(C)(C)C)c(O)c(C(C)(C)C)c1	active: 2.51 µM	–
Cc1ccc(S(=O)(=O)N2CCN(c3nc(C)nc4sc(C)c(C)c34)CC2)cc1	inactive	–
CN1CCN(c2cc(=O)n(C3CCCCC3)c(=O)[nH]2)CC1	inconclusive [activator, single point]	–
O=C(Nc1sc2c(c1C(=O)O)CCCC2)c1cccs1	inactive	–
CCOc1cc(C)nc(N2CCC(C(=O)Nc3ccccc3OCC)CC2)n1	inconclusive [activator, partial curve]	–
Cc1ccccc1NC(=O)CNc1ccccc1N1CCCCC1	inactive	–
C[C@H](CO)NC(=O)[C@@H]1C[C@H]1[C@@H](NP(=O)(c1ccccc1)c1ccccc1)c1ccccc1	active: 15.8 µM	–
Cc1cc(C)c(C#N)c(SCC(=O)CC(=O)OC(C)C)n1	active: 25.1 µM	–
COc1ccc(N2C(=O)CC(Nc3ccc(N4CCOCC4)cc3)C2=O)c(OC)c1 (stereo unspecified)	inactive	–
Cc1ccc(Cn2c(-n3nc(C)cc3C)nc3c2c(=O)[nH]c(=O)n3C)cc1	inconclusive [activator, single point]	–
O=C(NCc1ccco1)c1ccc2ccccc2c1	inconclusive [activator, single point]	–

SMILES	Potency	activation
O=C(NCc1cccnc1)C1CCCCN1S(=O)(=O)c1ccc(F)cc1 (stereo unspecified)	inconclusive [activator, single point]	–
O=C1c2ccccc2N2C(=O)c3ccccc3C2N1Cc1ccco1 (stereo unspecified)	active: 25.1 µM	–
C/C=C\C[C@@H](C)[C@@H](O)[C@H]1C(=O)N[C@@H](CC)C(=O)N(C)CC(=O)N(C)[C@@H](CC(C)C)C(=O)N[C@@H](C(C)C)C(=O)N(C)[C@@H](CC(C)C)C(=O)N[C@@H](C)C(=O)N[C@H](C)C(=O)N(C)[C@@H](CC(C)C)C(=O)N(C)[C@@H](CC(C)C)C(=O)N(C)[C@@H](C(C)C)C(=O)N1C	inactive	–
O=C(O)[C@@H]1CCCN1Cc1cc2ccccc2c2ccccc12	–	inactive: -4.28% [at 11.4 µM]
Cc1ccc(-c2nc3ccccc3[nH]2)cc1NC(=O)c1ccco1	inactive	–
FC(F)(F)c1cc(-c2ccco2)nc(NCc2cccnc2)n1	active: 25.1 µM	–
COc1ccc(NS(=O)(=O)c2cccc3cccnc23)cc1	inactive	–
CC(CN(C)Cc1ccccc1)OC(=O)c1cccs1 (stereo unspecified)	inconclusive [activator, single point]	–
CCC(C)Nc1ccc(NC(C)CC)cc1 (stereo unspecified)	inactive	–
COC(=O)C1=CN(C)C=C(C(=O)OC)C1c1ccccc1Cl	inconclusive [activator, partial curve]	–
CCOC(=O)N1CCN(C(=O)CCc2nc3sc4c(c3c(=O)[nH]2)CCCC4)CC1	inconclusive [activator, partial curve]	–
O=C(C1CCN(S(=O)(=O)c2ccc3ccccc3c2)CC1)N1CCN(c2ncccn2)CC1	active: 25.1 µM	–
Cc1cccc(OCC(O)Cn2c(=N)n(CCN3CCOCC3)c3ccccc32)c1 (stereo unspecified)	inconclusive [activator, partial curve]	–
CCOC(=O)C1=C(C)N=C2SC(C)C(=O)N2C1/C=C/c1ccccc1OC (stereo unspecified)	inconclusive [activator, partial curve]	–
O=C(NC1CCCC1)C(c1cccs1)N(Cc1ccco1)C(=O)Cn1nnc(-c2cccs2)n1 (stereo unspecified)	active: 20 µM	–
CCOC(=O)O[C@@H](C)OC(=O)[C@@H]1N2C(=O)[C@@H](NC(=O)[C@@H](N)c3ccccc3)[C@H]2SC1(C)C	inconclusive [activator, single point]	–
COCCn1c(SCC(=O)NC(=O)NCc2ccccc2)nc2ccccc21	inconclusive [activator, single point]	–
O=C(CSCc1nc2ccccc2[nH]1)N1CCN(c2cccc(Cl)c2)CC1	inconclusive [activator, single point]	–
CN(C)Cc1ccccc1-c1nc(N(C)Cc2ccco2)c2ccccc2n1	active: 12.6 µM	–
C=C(C)CSc1nnc([C@@H]2CCCN2C(=O)OC(C)(C)C)o1	inconclusive [activator, single point]	–
COc1cccc(C(=O)OCc2ccccc2C#N)c1O	inconclusive [activator, single point]	–
CN(C(=O)c1ccncc1)c1nnc(-c2ccccn2)s1	inactive	–
CC1CCN(c2nc3c(c(=O)n(C)c(=O)n3C)n2CCSc2ncccn2)CC1	inconclusive [activator, single point]	–

Source: PubChem BioAssay AID938 (National Center for Advancing Translational Sciences (NCATS), 2007)
